Source: article PMC12136788
This is one part of the list.

T1: UNK ZnF1-3 (human, UniProt Q9C0B0 31-174)
T1 sequence: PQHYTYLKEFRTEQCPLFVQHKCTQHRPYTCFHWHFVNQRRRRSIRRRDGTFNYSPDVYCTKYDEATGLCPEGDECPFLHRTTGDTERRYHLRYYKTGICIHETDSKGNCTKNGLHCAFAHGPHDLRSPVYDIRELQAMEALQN

B1: chr9:14812383:14812384:-_ENSMUSG00000031934_ENSMUST00000164273|mus_mus|mus_mus_mus_hu_True|1_1 (ssRNA)
RNA: GGGAGUUCUACAGUCCGACGAUCAUAGCCCAGGUAGAUACACGCUAACAGUAUAAUGAUGAGUGUCAGCAGGCGGCAGCUAAUGUACUUGAUGAUUAAAUUAUUAGAAUUUUUCUUUGUCUUCAAGUACUGCUCCACGAUUGGCAACAGAGGAUUGAGCAUCA
B2: chr19:36966019:36966020:+_ENSMUSG00000024811_ENSMUST00000025729|mus_mus|FALSE|FALSE (ssRNA)
RNA: GGGAGUUCUACAGUCCGACGAUCAGCAAGACCCAGAGCUUAAGGCCAUUGAAGAUCUUCUCUAGCCACAAGUCCCCAUCACGUCACACCAGAGCUCUCUGGGAUGUGUGCCUUCUAGACACAAAGGCAUCACCAAUUAAAUUCCAACAGAGGAUUGAGCAUCA
B3: chr2:119558892:119558893:+_ENSMUSG00000027304_ENSMUST00000028767|mus_mus|FALSE|FALSE (ssRNA)
RNA: GGGAGUUCUACAGUCCGACGAUCGCAAGAACCCCACAGCUCCACGGUAAUACUGAGUGUGCUGAGUGGCGGGACUGUGCUAGUUACAAACCAGAAGCAGGCGGGAGGGCAAACACAAACCUAAAGAGAAGAAGCCCCAUCCAACAACAGAGGAUUGAGCAUCA
B4: chr4:17845017:17845018:+_ENSG00000109805_ENST00000514176|hu_mus|hu_hu_hu_mus_False|38_48 (ssRNA)
RNA: GGGAGUUCUACAGUCCGACGAUCGCUCUCUUAACUUGUAUCUUCAUUAAGGAACUCUGCAAGGUUAAGUUUACUUUUCUGUAGCGCGCGGUUUUGGCUCGUCUUGGGUAAUCUCAUCUUCAUUUCUGAUGGUGGUUCAUGAUCCAACAGAGGAUUGAGCAUCA
B5: chr11:76780297:76780298:+_ENSMUSG00000020840_ENSMUST00000021197|mus_mus|FALSE|FALSE (ssRNA)
RNA: GGGAGUUCUACAGUCCGACGAUCGAAGUCAAUGGGCUGGUUGUUAUACAGCGUUUUUCUCCCUCCAACCAUAUUGCUCAAGUAGUCUACUGUGUACAAUUUAUUGUACUUGUGCUGGGGCCGUGGGUCAUUCACAAAACAAAUCAACAGAGGAUUGAGCAUCA
B6: chr3:148802587:148802588:-_ENSG00000071794_ENST00000310053|hu_mus|hu_hu_hu_mus_False|1_68 (ssRNA)
RNA: GGGAGUUCUACAGUCCGACGAUCUCCAACAACUUGUCCUCUCAUAGUUCCAAAUAAAACCAAAUCUACUUCUUCAUCACUCGUUAGGAAGUCAUCUGGAGGAAUAAUGUCUUGGAAUUCAAAAUGUGGCAAGAAAGUUGGAUACAACAGAGGAUUGAGCAUCA
B7: chr3:87734452:87734453:+_ENSMUSG00000048039_ENSMUST00000055984|mus_mus|FALSE|FALSE (ssRNA)
RNA: GGGAGUUCUACAGUCCGACGAUCUCGCAAGCGUCCGAAGCCGGAUGCAGGCGCAGGCGCGCGCCGACGUAUGCCGGGACGGCAAGAACGCGGGCGACAACGGGAAGGCGGCCGGCGCGCACGCGCCCGCAGCGCCCCCACCUCCAACAGAGGAUUGAGCAUCA
B8: chrX:102632674:102632675:+_ENSG00000166681_ENST00000361298|hu_mus|FALSE|FALSE (ssRNA)
RNA: GGGAGUUCUACAGUCCGACGAUCGUGGUUAGACAGCUCCCCCAUAAGGAUGCGUAGACAAUUUCUCAGCUGUAGCUCCCUAAGCUUUCUCCGGAUCUCUCUCAUCUCCUCCAUGAACAUUUCCAUAUCAUCUCCAUCUCCACCCAACAGAGGAUUGAGCAUCA
B9: chrX:160355682:160355683:+_ENSMUSG00000031367_ENSMUST00000069041|mus_mus|FALSE|FALSE (ssRNA)
RNA: GGGAGUUCUACAGUCCGACGAUCGACAUUUUUCUUGGAUGUUUCCUGAACUUCUCCUCCCAAGAGAAAUUCAUCCAAAAUAAAAUAGGCCUUCUCAAAAUUAAAGAUGAUAUCAAGUUCACAUACACUGCCAAAAUACUUGUCCAACAGAGGAUUGAGCAUCA
B10: chr1:244855233:244855234:+_ENSG00000121644_ENST00000302550|hu_mus|hu_hu_hu_mus_True|88_98 (ssRNA)
RNA: GGGAGUUCUACAGUCCGACGAUCCAUCAGAUGGUAGGCAUUGCCUUUGUAUUCUUUCCCCAGUUCUUCUACAAUUUUCUCUAUAUCAUCUUCUAGAAAGUCCGUACUUCCUAGAACAACAGCUUCUUUAAAUUUAAAUGUUUCCAACAGAGGAUUGAGCAUCA
B11: chr8:72619372:72619373:-_ENSMUSG00000002341_ENSMUST00000002412|mus_mus|FALSE|FALSE (ssRNA)
RNA: GGGAGUUCUACAGUCCGACGAUCAAUAAAACCAAAGAAGGCUGGGCAGACAGUUCGCUGAGUUCCAGGUUAGCCUGGUCUAUAUAGCAAGUUCCAGGCCAGCCAGGGCCGCACAGUGAGGCCCUGUCUCAAAACAAAAACAACCAACAGAGGAUUGAGCAUCA
B12: chr11:78564483:78564484:-_ENSMUSG00000049489_ENSMUST00000059468|mus_mus|FALSE|FALSE (ssRNA)
RNA: GGGAGUUCUACAGUCCGACGAUCAAUCUGAAUGAGAUCAGACACAAUAUUGUCAAUGAUUGGCUUGGUAAGGUCAUCACUAAAUACCUGCCACCAAGGCUUCUCGGCCUCACCCUCUGCAGGCACCUCGACUCCAUAGACCUGCAACAGAGGAUUGAGCAUCA
B13: 31381247_31381367_1419_CDS_ENSG00000196792_ENST00000355683|human|control|control (ssRNA)
RNA: GGGAGUUCUACAGUCCGACGAUCUUUCAGGGUAUGGUCCUCAGAAGCAGUAACCAGCACAGGUUCUACAGGAUGAAAAGCUAAUGCCCGUACUCCAUCAAAAUGGCUACGUAGUGUAUACUUGGGAUUCCAUGUCUUUCGAAACAACAGAGGAUUGAGCAUCA
B14: chr12:93046693:93046694:-_ENSMUSG00000020964_ENSMUST00000021347|mus_hu|FALSE|FALSE (ssRNA)
RNA: GGGAGUUCUACAGUCCGACGAUCCUACCUUUCACAGAUACGCUUUCAUACAUAUGGCUCUCUUGGUGACUAACUCUUCGAAUUUGGAAGCAAUUAUCUGGGAGGAAAGUUUUGCUUACCAGGUUUCCCAUAAUUCUCUAAACACAACAGAGGAUUGAGCAUCA

molecular target: T1, UNK ZnF1-3; assay: nsRBNS (natural sequence RNA bind-n-seq); RBNS binding buffer (assumed for nsRBNS): 25 mM Tris pH 7.5, 150 mM KCl, 3 mM MgCl2, 0.01% Triton X-100, 500 ug/ml BSA, 20 U/ml SUPERase-In, 4 C; UNK is unkempt and MSI1 is Musashi-1; names of the RNAs are library labels; protein concentration not given here; high values mean tight binding

**Q.** With B1 as the binder, how does the binding signal read?
**A.** 1.52 enrichment R

**Q.** How did the binding signal turn out when B2 was run?
**A.** 1.42 enrichment R

**Q.** With B3 as the binder, how does the binding signal read?
**A.** 1.8 enrichment R

**Q.** B4 was tested. Which binding signal did it give?
**A.** 0.311 enrichment R

**Q.** How did the binding signal turn out when B5 was run?
**A.** 0.722 enrichment R

**Q.** B6 was tested. Which binding signal did it give?
**A.** 0.755 enrichment R

**Q.** Which binding signal does the source give for B7 here?
**A.** 0.755 enrichment R

**Q.** Which binding signal does the source give for B8 here?
**A.** 1.22 enrichment R

**Q.** How did the binding signal turn out when B9 was run?
**A.** 0.934 enrichment R

**Q.** How did the binding signal turn out when B10 was run?
**A.** 1.37 enrichment R

**Q.** How did the binding signal turn out when B11 was run?
**A.** 0.8 enrichment R

**Q.** For B12, which binding signal is on record?
**A.** 0.833 enrichment R

**Q.** Which binding signal does the source give for B13 here?
**A.** 0.912 enrichment R

**Q.** For B14, which binding signal is on record?
**A.** 1.15 enrichment R
